Most values come without repeats; read them as rough.
Tests used:
[1] = test system: CHO-K1; assay: micronucleus frequency (% of nucleated events); higher = more micronuclei (genotoxic)
[2] = test system: CHO-K1; assay: hypodiploid nuclei frequency (% of nucleated events); higher = more hypodiploid events (aneugenic)
[3] = test system: CHO-K1; assay: relative survival (nuclei to bead ratio vs DMSO control) (% of vehicle control); higher = more surviving cells
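For hypodiploid nuclei frequency (% of nucleated events) in this document: hypodiploid nuclei gated on a flow cytometer with 488 nm excitation after SYTOX Green staining, cultures at 37 °C, positive controls vinblastine without S9 and cyclophosphamide with S9.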
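For micronucleus frequency (% of nucleated events) in this document: cells lysed with nuclei stained by SYTOX Green, then micronucleus-gated events counted against nucleated events by flow cytometry with 488 nm excitation.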
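For relative survival (nuclei to bead ratio vs DMSO control) in this document: Lysed-cell nuclei stained with SYTOX Green and counted against counting beads by flow cytometry at 488 nm excitation, with vinblastine (no S9) and cyclophosphamide (plus S9) as positive controls.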

CC(C)=CCCC(C)CCO (configuration not stated) [Citronellol]
Settings | hypodiploid nuclei frequency, [2] [%] | micronucleus frequency, [1] [%] | relative survival, [3]
concentration: 4.5 (µM), S9 metabolic activation: with S9, exposure time: 3-4 hours | 0.1 | 1.52 | 135
concentration: 4.5 (µM), S9 metabolic activation: without S9, exposure time: 24 hours | 0.7 | 1.84 | 119
concentration: 5.63 (µM), S9 metabolic activation: with S9, exposure time: 3-4 hours | 0.28 | 1.72 | 91.4
concentration: 5.63 (µM), S9 metabolic activation: without S9, exposure time: 24 hours | 0.64 | 2.22 | 111
concentration: 7.04 (µM), S9 metabolic activation: with S9, exposure time: 3-4 hours | 0.2 | 2.06 | 112
concentration: 7.04 (µM), S9 metabolic activation: without S9, exposure time: 24 hours | 0.8 | 2.64 | 108
concentration: 8.8 (µM), S9 metabolic activation: with S9, exposure time: 3-4 hours | 0.34 | 2.84 | 94.1
concentration: 8.8 (µM), S9 metabolic activation: without S9, exposure time: 24 hours | 1 | 3 | 110
concentration: 11 (µM), S9 metabolic activation: with S9, exposure time: 3-4 hours | 0.28 | 2.48 | 117
concentration: 11 (µM), S9 metabolic activation: without S9, exposure time: 24 hours | 0.98 | 3.32 | 101
concentration: 13.7 (µM), S9 metabolic activation: with S9, exposure time: 3-4 hours | 0.38 | 2.16 | 93.2
concentration: 13.7 (µM), S9 metabolic activation: without S9, exposure time: 24 hours | 0.68 | 2.56 | 103
concentration: 17.2 (µM), S9 metabolic activation: with S9, exposure time: 3-4 hours | 0.38 | 2.68 | 99.3
concentration: 17.2 (µM), S9 metabolic activation: without S9, exposure time: 24 hours | 1.06 | 3.5 | 103
concentration: 21.5 (µM), S9 metabolic activation: with S9, exposure time: 3-4 hours | 0.2 | 1.7 | 100
concentration: 21.5 (µM), S9 metabolic activation: without S9, exposure time: 24 hours | 1 | 3.7 | 98.5
concentration: 26.8 (µM), S9 metabolic activation: with S9, exposure time: 3-4 hours | 0.26 | 2.16 | 82.8
concentration: 26.8 (µM), S9 metabolic activation: without S9, exposure time: 24 hours | 0.92 | 1.6 | 78.7
concentration: 33.6 (µM), S9 metabolic activation: with S9, exposure time: 3-4 hours | 0.2 | 2.04 | 88.1
concentration: 33.6 (µM), S9 metabolic activation: without S9, exposure time: 24 hours | 0.96 | 2.42 | 82.9
concentration: 41.9 (µM), S9 metabolic activation: with S9, exposure time: 3-4 hours | 0.16 | 1.26 | 70.5
concentration: 41.9 (µM), S9 metabolic activation: without S9, exposure time: 24 hours | 0.76 | 2.34 | 89.8
concentration: 52.4 (µM), S9 metabolic activation: with S9, exposure time: 3-4 hours | 0.3 | 1.88 | 74.3
concentration: 52.4 (µM), S9 metabolic activation: without S9, exposure time: 24 hours | 0.94 | 3.94 | 103
concentration: 65.5 (µM), S9 metabolic activation: with S9, exposure time: 3-4 hours | 0.2 | 2.22 | 67.2
concentration: 65.5 (µM), S9 metabolic activation: without S9, exposure time: 24 hours | 1.04 | 3.14 | 82.9
concentration: 81.9 (µM), S9 metabolic activation: with S9, exposure time: 3-4 hours | 0.34 | 2.16 | 56.3
concentration: 81.9 (µM), S9 metabolic activation: without S9, exposure time: 24 hours | 1.48 | 2.66 | 79.6
concentration: 102 (µM), S9 metabolic activation: with S9, exposure time: 3-4 hours | 0.22 | 2.04 | 87.8
concentration: 102 (µM), S9 metabolic activation: without S9, exposure time: 24 hours | 2.28 | 3.52 | 76
concentration: 128 (µM), S9 metabolic activation: with S9, exposure time: 3-4 hours | 0.4 | 2.52 | 76.7
concentration: 128 (µM), S9 metabolic activation: without S9, exposure time: 24 hours | 10.4 | 2.62 | 60
concentration: 160 (µM), S9 metabolic activation: with S9, exposure time: 3-4 hours | 0.4 | 1.86 | 75.7
concentration: 160 (µM), S9 metabolic activation: without S9, exposure time: 24 hours | 2.92 | 4.76 | 59.3
concentration: 200 (µM), S9 metabolic activation: with S9, exposure time: 3-4 hours | 0.32 | 1.62 | 90.9
concentration: 200 (µM), S9 metabolic activation: without S9, exposure time: 24 hours | – | – | 32.5

CCCOC(=O)c1cc(O)c(O)c(O)c1 [Propyl gallate]
Settings | hypodiploid nuclei frequency, [2] [%] | micronucleus frequency, [1] [%] | relative survival, [3]
concentration: 4.5 (µM), S9 metabolic activation: with S9, exposure time: 3-4 hours | 0.26 | 1.02 | 111
concentration: 4.5 (µM), S9 metabolic activation: without S9, exposure time: 24 hours | 0.76 | 1.2 | 92.3
concentration: 5.63 (µM), S9 metabolic activation: with S9, exposure time: 3-4 hours | 0.24 | 1.28 | 131
concentration: 5.63 (µM), S9 metabolic activation: without S9, exposure time: 24 hours | 0.7 | 1.62 | 111
concentration: 7.04 (µM), S9 metabolic activation: with S9, exposure time: 3-4 hours | 0.28 | 0.98 | 102
concentration: 7.04 (µM), S9 metabolic activation: without S9, exposure time: 24 hours | 0.72 | 1.48 | 125
concentration: 8.8 (µM), S9 metabolic activation: with S9, exposure time: 3-4 hours | 0.2 | 1.68 | 113
concentration: 8.8 (µM), S9 metabolic activation: without S9, exposure time: 24 hours | 0.72 | 1.68 | 120
concentration: 11 (µM), S9 metabolic activation: with S9, exposure time: 3-4 hours | 0.18 | 1.36 | 111
concentration: 11 (µM), S9 metabolic activation: without S9, exposure time: 24 hours | 0.52 | 1.54 | 113
concentration: 13.7 (µM), S9 metabolic activation: with S9, exposure time: 3-4 hours | 0.22 | 1.18 | 112
concentration: 13.7 (µM), S9 metabolic activation: without S9, exposure time: 24 hours | 0.68 | 1.76 | 89
concentration: 17.2 (µM), S9 metabolic activation: with S9, exposure time: 3-4 hours | 0.32 | 1.46 | 96.2
concentration: 17.2 (µM), S9 metabolic activation: without S9, exposure time: 24 hours | 0.64 | 1.9 | 99.3
concentration: 21.5 (µM), S9 metabolic activation: with S9, exposure time: 3-4 hours | 0.24 | 1.32 | 118
concentration: 21.5 (µM), S9 metabolic activation: without S9, exposure time: 24 hours | 0.72 | 2.08 | 73.9
concentration: 26.8 (µM), S9 metabolic activation: with S9, exposure time: 3-4 hours | 0.24 | 1.54 | 87.3
concentration: 26.8 (µM), S9 metabolic activation: without S9, exposure time: 24 hours | 0.88 | 2.22 | 69.3
concentration: 33.6 (µM), S9 metabolic activation: with S9, exposure time: 3-4 hours | 0.2 | 1.52 | 94.3
concentration: 33.6 (µM), S9 metabolic activation: without S9, exposure time: 24 hours | 1.12 | 3.54 | 84.9
concentration: 41.9 (µM), S9 metabolic activation: with S9, exposure time: 3-4 hours | 0.3 | 2.96 | 88.7
concentration: 41.9 (µM), S9 metabolic activation: without S9, exposure time: 24 hours | 1.14 | 3.1 | 50.8
concentration: 52.4 (µM), S9 metabolic activation: with S9, exposure time: 3-4 hours | 0.36 | 2.74 | 72.8
concentration: 52.4 (µM), S9 metabolic activation: without S9, exposure time: 24 hours | 0.92 | 2.72 | 51.1
concentration: 65.5 (µM), S9 metabolic activation: with S9, exposure time: 3-4 hours | 0.36 | 2.16 | 62.8
concentration: 65.5 (µM), S9 metabolic activation: without S9, exposure time: 24 hours | 0.5 | 2.52 | 47.6
concentration: 81.9 (µM), S9 metabolic activation: with S9, exposure time: 3-4 hours | 0.4 | 1.8 | 64.3
concentration: 81.9 (µM), S9 metabolic activation: without S9, exposure time: 24 hours | 0.64 | 2.8 | 44.1
concentration: 102 (µM), S9 metabolic activation: with S9, exposure time: 3-4 hours | 0.2 | 2.04 | 51
concentration: 102 (µM), S9 metabolic activation: without S9, exposure time: 24 hours | 0.84 | 3.42 | 51
concentration: 128 (µM), S9 metabolic activation: with S9, exposure time: 3-4 hours | 0.18 | 1.92 | 47.5
concentration: 128 (µM), S9 metabolic activation: without S9, exposure time: 24 hours | 0.46 | 2.36 | 40.4
concentration: 160 (µM), S9 metabolic activation: with S9, exposure time: 3-4 hours | 0.38 | 1.52 | 45.5
concentration: 160 (µM), S9 metabolic activation: without S9, exposure time: 24 hours | 0.58 | 1.96 | 46.3
concentration: 200 (µM), S9 metabolic activation: with S9, exposure time: 3-4 hours | 0.4 | 1.82 | 51.7
concentration: 200 (µM), S9 metabolic activation: without S9, exposure time: 24 hours | – | – | 37.5
